Assay results taken from publication PMC4336329 (PLoS ONE, 2015).
Hit rate of the full screen: of about 310,000 compounds, about 2,200 (0.71%) showed an effect of 50% or more. Effects have a minus sign here. Some of the results follow.

Target: human ether-à-go-go-related gene (hERG) potassium channel (human, UniProt Q12809)
Test: primary screen, population patch clamp on CHO cells stably expressing hERG

human ether-à-go-go-related gene (hERG) potassium channel, sequence (Q12809 whole entry, looked up): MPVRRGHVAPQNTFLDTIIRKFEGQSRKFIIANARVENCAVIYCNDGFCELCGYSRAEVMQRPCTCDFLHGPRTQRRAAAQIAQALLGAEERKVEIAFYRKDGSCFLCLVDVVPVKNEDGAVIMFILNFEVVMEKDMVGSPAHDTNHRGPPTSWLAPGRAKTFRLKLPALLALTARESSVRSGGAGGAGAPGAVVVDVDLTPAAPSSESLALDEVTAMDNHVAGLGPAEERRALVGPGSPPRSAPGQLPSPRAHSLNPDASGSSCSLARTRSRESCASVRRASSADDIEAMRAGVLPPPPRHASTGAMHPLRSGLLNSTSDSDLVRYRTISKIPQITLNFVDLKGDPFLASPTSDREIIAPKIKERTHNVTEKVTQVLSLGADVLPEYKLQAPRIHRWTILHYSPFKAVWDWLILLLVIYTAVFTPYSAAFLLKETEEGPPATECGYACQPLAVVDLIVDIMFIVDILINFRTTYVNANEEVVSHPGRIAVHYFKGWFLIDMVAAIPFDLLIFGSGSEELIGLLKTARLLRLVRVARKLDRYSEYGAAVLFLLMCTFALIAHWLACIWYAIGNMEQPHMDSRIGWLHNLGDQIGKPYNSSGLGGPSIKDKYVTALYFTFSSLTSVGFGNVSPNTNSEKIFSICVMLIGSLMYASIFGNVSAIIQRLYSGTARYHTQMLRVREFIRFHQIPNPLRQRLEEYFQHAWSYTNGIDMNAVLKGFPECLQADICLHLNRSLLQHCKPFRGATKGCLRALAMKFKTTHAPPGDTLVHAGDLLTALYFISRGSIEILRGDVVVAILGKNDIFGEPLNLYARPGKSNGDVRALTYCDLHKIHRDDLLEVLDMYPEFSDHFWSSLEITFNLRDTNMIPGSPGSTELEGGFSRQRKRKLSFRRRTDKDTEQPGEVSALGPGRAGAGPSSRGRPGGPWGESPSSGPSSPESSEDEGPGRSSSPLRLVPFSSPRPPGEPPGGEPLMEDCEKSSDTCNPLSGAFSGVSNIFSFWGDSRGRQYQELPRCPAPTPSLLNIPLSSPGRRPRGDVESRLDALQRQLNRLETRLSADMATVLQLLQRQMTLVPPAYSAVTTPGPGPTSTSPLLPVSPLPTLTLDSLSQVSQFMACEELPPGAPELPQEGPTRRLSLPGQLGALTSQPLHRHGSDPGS

| Compound | hERG current change (%, negative = inhibition) at 1uM |
| --- | --- |
| C=CCNc1nc2c(c(=O)n(C)c(=O)n2C)n1CC(=C)C | 8.49% |
| NC(=O)NC(=O)C(c1ccccc1)N1CCN(S(=O)(=O)Cc2ccccc2)CC1 (stereo not drawn) | 1.61% |
| Nc1cc(=O)[nH]c(SCc2cccc(Cl)c2)n1 | 10.4% |
| Cc1ccnc(N2CCC(C(=O)NNC(=O)COc3cccc4ccccc34)CC2)n1 | 10% |
| CC(=O)Nc1ccc2c(c1)c1ccccc1n2C(C)=O | 4.95% |
| CC(C(N)=O)N1C(=O)C2C3C=CC(C3)C2C1=O (stereo not drawn) | 9.87% |
| O=C(Nc1nc2c(s1)CCCC2)c1ccc(S(=O)(=O)N2CCCc3ccccc32)cc1 | 10.6% |
| COc1ccc(S(=O)(=O)N(C)CC(=O)NCCc2ccccc2)cc1OC | 4.72% |
| CCN1CCN(C(=O)C2=C(C(=O)O)CCCC2)CC1 | 7.69% |
| Cc1ccc(N2C(=O)CC2(C#N)c2ccc(OCc3ccccc3)cc2)cc1 (stereo not drawn) | -21.7% |
| Cc1ccc(S(=O)(=O)N2[C@@H](c3ccccc3)C(C(=O)O)=CC[C@H]2c2cccc(Cl)c2)cc1 | 8.85% |
| O=C1C[C@@H](c2ccc(O[C@@H]3O[C@H](CO)[C@@H](O)[C@H](O)[C@H]3O)cc2)Oc2cc(O)ccc21 | 1.47% |
| Cc1csc(Sc2nc3c(c(=O)[nH]c(=O)n3C)n2CCCc2ccccc2)n1 | 13.2% |
| O=C(Cn1cc(C(=O)c2ccco2)c2ccccc21)NC1CCCCC1 | 8.74% |
| COc1ccccc1CNC(=O)c1ccc(S(=O)(=O)N(C)C)cc1 | 13.9% |
| Cc1ccc(C)c(NC(=S)Nc2ncccc2C)c1 | 7.56% |
| Cc1nnsc1C(=O)N1CCCC(Nc2ccc(F)c(F)c2)C1 (stereo not drawn) | 11.7% |
| CCc1c(C)nc(Nc2nc(C)c3cc(OC)ccc3n2)[nH]c1=O | 12.3% |
| CCOc1ccc(-n2c(Cc3cc(=O)[nH]c(=O)[nH]3)nnc2SCC(=O)NC2CCCC2)cc1 | 13.2% |
| O=C(Cn1nc(-c2cccc([N+](=O)[O-])c2)c2ccccc2c1=O)Nc1cccnc1 | 11% |
| Cc1nc2c(C#N)c(C)[nH]n2c(=O)c1Cc1ccccc1 | 15% |
| CCSc1nc2cc(C(=O)OC)ccc2c(=O)n1CC | 2.14% |
| CCc1nc(CN2CCN(Cc3ccc(F)c(F)c3)C(CCO)C2)c(C)[nH]1 (stereo not drawn) | 16.6% |
| COc1ccc(C(=O)Nc2sc3c(c2C(=O)O)CC(C)(C)OC3)cc1 | -1.26% |
| O=C1C=C(c2ccccc2)CCC1 | 14.2% |
| CCCCn1c(=O)[nH]c(=O)c2c1nc(-c1ccc(-c3ccccc3)cc1)n2C | 16.8% |
| O=C(N/N=C/c1ccncc1)c1cc(C2CC2)nc2ccccc12 | 8.6% |

| Compound | hERG current change (%, negative = inhibition) at 1uM |
| --- | --- |
| CCOC(=O)c1c(C)[nH]c(C(=O)OCC(=O)N2CCc3ccccc32)c1C | 13.4% |
| CCc1ccccc1NS(=O)(=O)c1ccc2c(c1)C(C)(C)C(=O)N2C | 3.18% |
| C#CCOCCOCCOCCNc1nc(N2CCN(C(=O)CCCCCCCCCCNC(=O)Cn3cc(C[C@@H](C)O)nn3)CC2)nc(N2CCN(C(=O)CCCCCCCCCCNC(=O)[C@H](CO)n3cc(CCCSC)nn3)CC2)n1 | 4.11% |
| NC(=O)c1cccc([N+](=O)[O-])c1 | 2.08% |
| CCCC12CN(C(=O)c3ccc([N+](=O)[O-])cc3)CC(C)(CN(C(=O)c3ccc([N+](=O)[O-])cc3)C1)C2=O | 3.51% |
| O=C(Nc1ccc(OCC(=O)N2CCN(S(=O)(=O)c3ccccc3)CC2)cc1)c1ccco1 | 12.1% |
| Cc1[nH]c2ccccc2c1/C=N/NC(=O)c1cccc(S(=O)(=O)Nc2cccc(C(F)(F)F)c2)c1 | 13.2% |
| Cc1ccc(S(=O)(=O)N2CC(C(=O)O)=CC[C@H]2c2ccc(Cl)cc2)cc1 | 12.2% |
| Cc1nn(C(C)(C)C)c(N)c1-c1ccccc1 | 16.9% |
| CCOC(=O)Cc1csc(NC(=O)COc2ccc(C)c(C)c2)n1 | 6.54% |
| Cc1ccc(-c2nc(=S)c3c(n2CCN2CCOCC2)CC(C)(C)OC3)cc1 | 10.6% |
| Cl.O=C(O)c1ccoc1CN1CCCCC1 | -15% |
| CC1=NN(c2ccc(Cl)c(C(=O)O)c2)C(=O)/C1=C/c1ccc(-c2ccccc2[N+](=O)[O-])o1 | 18.6% |
| Cc1cc(C)cc(C(=O)N(CCc2ccccc2)C2=CC3CCC(C2)N3C)c1.Cl (stereo not drawn) | -20.5% |
| COc1ccc(OC(C)C(=O)NC(C)c2ccccc2)cc1 (stereo not drawn) | 9.81% |
| COc1cccc(CN(C)C(=O)c2cc(S(=O)(=O)NCc3ccccc3)ccc2C)c1OC | 13% |
| CCOC(=O)/C(N=Nc1sc(C(=O)OC)c(C)c1C(=O)OCC)=C(\O)CCl | 14.4% |
| Cc1ccccc1C(=O)NC1CCN(CC(=O)Nc2ccc(Br)cc2)CC1 | -15.4% |
| O=C(COC(=O)c1nc(Cl)ccc1Cl)NNC(=O)c1cccs1 | 14% |
| CN(C(=O)CSc1nnnn1C)C1(C#N)CCCCC1 | 9.69% |
| CCOC(=O)c1c(C)[nH]c(C(C)=O)c1C | 8.8% |
| Cc1cccc(C)c1NC(=O)C1(N(Cc2ccco2)C(=O)CC2NC(=O)NC2=O)CCCC1 (stereo not drawn) | 7.46% |
| NS(=O)(=O)c1ccc(CCNC(=O)c2cccc(OC(F)F)c2)cc1 | 7.56% |
| OCC1(CCCc2ccccc2)CCN(Cc2cc(F)ccc2F)CC1 | -6.63% |
| COc1ccc(OC)c(/C=N/NC(=O)C(=O)N2CCCC2)c1 | 1.25% |
| CCc1ccccc1NC(=O)c1noc(C(C)C)c1[N+](=O)[O-] | 8.54% |
| CCn1c(SCC(=O)Nc2cc(C)on2)nnc1-c1ccc(S(=O)(=O)N2CCCC2)cc1 | 9.62% |
